Experimental data reported in the supplement of paper PMC10338343.
± gives the standard deviation. The list shows a part of the results, in another mix than the full data.

Tested on: MIWI (PIWIL1) piRISC loaded with L1MC piRNA (30 nt)
Test: pre-steady-state target cleavage rate (min^-1); MIWI and MILI are mouse PIWI proteins and EfPiwi is from a freshwater sponge; tags in brackets are library labels; higher = faster piRNA-guided slicing of the target
Conditions: guide: L1MC piRNA 5'p-UAACUAAAUACUAUGCAAGCUGUAGGUCCU
In short: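 With or without 500 nM GTSF1 partner protein, 1 nM active affinity-purified piRISC carrying one synthetic guide was mixed with 0.1 nM transcribed, DNA-blocked target RNA library in HEPES–potassium acetate buffer at 33 °C for 0–8 or 0–960 min. Uncleaved targets were sequenced and normalised to depth and to weakly complementary targets, three trials were pooled, and k3 was capped at 0.0001 min^-1. The pre-steady-state cleavage rate came from a burst-and-steady-state fit.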

[1] = auxiliary factor: 500 nM mouse GTSF1
[2] = auxiliary factor: none (no GTSF1)

| Sequence | pre-steady-state target cleavage rate [1] | pre-steady-state target cleavage rate [2] |
| --- | --- | --- |
| UGGACCAACAGCUAGCAUAGUAUUUAGUUA | 1.36 ± 0.059 | 0.0347 ± 0.0073 |
| UGGACCUACAGCUAGCAUAGUAUUUUGUUA | 0.906 ± 0.058 | 0.016 ± 0.0031 |
| UCCUGGAUGAGCUUGGAUAGUAUUUUGUUA | 0.531 ± 0.062 | 0.0196 ± 0.0065 |
| UCCUGGUACAGCUUGCAUAGUAUUUGGUUA | 0.449 ± 0.037 | 0.0417 ± 0.0074 |
| UGGUCCUACAGCUUGCAUAGUAUUUAGUAA | 0.777 ± 0.037 | 0.052 ± 0.0083 |
| UCCAGCUACAGCUUGCAUAGUAUUUACAAA | 0.313 ± 0.036 | 0.0031 ± 0.0021 |
| UCCUGGAUGUGCUUGCAUAGUAUUCUAGUUA | 0.211 ± 0.037 | 0.0155 ± 0.0049 |
| UGGACCUACAGCUAGCAUAGUAUUUACAAA | 0.249 ± 0.03 | 0.00255 ± 0.0025 |
| UCCUGGUACAGCUUGCAUAGAAUUUAGUAA | 0.278 ± 0.078 | 0.0057 ± 0.0033 |
| UCCUGGAACAGCUUGCAUAGUAUUUUGAUA | 0.232 ± 0.029 | 0.0117 ± 0.0035 |
| UCCUGGAUCAGCUUGCAUACUAUUUAGUAA | 0.0988 ± 0.01 | 0.0136 ± 0.0039 |
| UCCUGCUACAUGCUUGCAUAGUAUUUAGUUA | 0.211 ± 0.031 | 0.0175 ± 0.0034 |
| AGGACCUUCAGGUUGCAUAGUAUUUAGUUA | 1.14 ± 0.083 | 0.0517 ± 0.009 |
| UCCUGGAUGUGGUUGCAUAGUAUUUAGUUA | 0.0576 ± 0.0088 | 0.00657 ± 0.0025 |
| UCCUGGAUCUGCUUGCAUAGUAUUUAGUAA | 0.591 ± 0.039 | 0.013 ± 0.0035 |
| UCCACGUACAGCUUGCAUAGUAUUUACAAA | 0.254 ± 0.032 | 0.00339 ± 0.0019 |
| UCGACCUACAGCUUGCAUAGUAUCUAGUUA | 0.92 ± 0.048 | 0.0466 ± 0.0068 |
| AGGACCUACACCUUGCAAAGUAUUUAGUUA | 1.19 ± 0.036 | 0.0555 ± 0.01 |
| UCCACCUACAGCUUGCAUAGUAUUUAAGUUA | 0.736 ± 0.051 | 0.0371 ± 0.0075 |
| AGGACCUACACCUUCCAUAGUAUUUAGUUA | 0.0641 ± 0.017 | 0.00484 ± 0.002 |

| Sequence | pre-steady-state target cleavage rate [1] | pre-steady-state target cleavage rate [2] |
| --- | --- | --- |
| UCCUGGAUGACCUUGCAUACUAUUUAGUUA | 0.0436 ± 0.0098 | 0.0117 ± 0.003 |
| UGGUCCUACAGCUUGCUUAGUAUUUAGUUA | 1.21 ± 0.035 | 0.0478 ± 0.0087 |
| UCCACGUAGAGCUUGCAUAGUAUUUAGUUA | 0.988 ± 0.041 | 0.0471 ± 0.0084 |
| UCCUGGAUGAGCUUGCUUAGUAUUUAGAUA | 0.252 ± 0.031 | 0.00866 ± 0.0032 |
| UCCACCUACUGCUUGCAUAGUAUUAAGUUA | 0.37 ± 0.029 | 0.0151 ± 0.0024 |
| UCCUGGUAGAGCUUGCAUAGUAUUUAGUAA | 0.689 ± 0.059 | 0.0261 ± 0.0079 |
| AGGACCUACAGCUUGCUUAGUAUUUAGAUA | 0.642 ± 0.067 | 0.019 ± 0.005 |
| UCCACCUUGUGCUUGCAUAGUAUUUAGUAA | 0.218 ± 0.029 | 0.0153 ± 0.0028 |
| UCCUGGAUGUCCUUGCAUAGUGUUUAGUUA | 0.069 ± 0.012 | 0.0107 ± 0.0026 |
| UGGACCUAGAGCUUGCAUAGUAUUUAGUAA | 0.698 ± 0.054 | 0.0466 ± 0.011 |
| UCCUGGAACAGCUUGCAUUGUAUUUAGUUA | 0.829 ± 0.041 | 0.0279 ± 0.0071 |
| UCCACCUCAGCUUGCAUAGUAUUUAGUUA | 0.878 ± 0.07 | 0.0436 ± 0.0088 |
| UCCUGCUACAGGUUGCAUAGUAUUUUGUUA | 0.774 ± 0.078 | 0.0176 ± 0.0036 |
| UCGACCUAAAGCUUGCAUAGUAUUUAGUUA | 0.793 ± 0.029 | 0.0468 ± 0.0088 |
| UCGACCUACGAGCUUGCAUAGUAUUUAGUUA | 0.737 ± 0.077 | 0.0529 ± 0.011 |
| UCCUGGAUGAGCUAGCAUAGUAUUUAGAUA | 0.194 ± 0.025 | 0.00381 ± 0.0027 |
| UCCUGCUACAGCUUGCAUAGUAUUUAGAAA | 0.381 ± 0.048 | 0.00361 ± 0.0026 |
| UCCUGGAUCAGCUUGCAAAGUAUUAAGUUA | 0.533 ± 0.04 | 0.00937 ± 0.0035 |
| UCGACUACAGCUUGCAUAGUAUUUAGUUA | 1.3 ± 0.049 | 0.0713 ± 0.012 |
| UCCUGAUACAGCUUGCAUAGUAUUUAGUUA | 1.15 ± 0.046 | 0.0816 ± 0.017 |

| Sequence | pre-steady-state target cleavage rate [1] | pre-steady-state target cleavage rate [2] |
| --- | --- | --- |
| AGGAUCUACAGCUUGCAUAGUAUUUAGUUA | 1.7 ± 0.059 | 0.105 ± 0.017 |
| UCCUGCUACACCUUGCAUAGUAAUUAGUUA | 0.434 ± 0.069 | 0.0145 ± 0.004 |
| AGGACCUACAGCUUGAUAGUAUUUAGUUA | 1.21 ± 0.082 | 0.0133 ± 0.0041 |
| UGGACCUACAGCUUACAUAGUAUUUAGUUA | 1.53 ± 0.079 | 0.0508 ± 0.0082 |
| UCCUGGUACAGCUUGCAUAGUAGUUAGUUA | 0.433 ± 0.051 | 0.0224 ± 0.0045 |
| UCCUGGAUGAGCUUGCAUAGUAUUUUCAAA | 0.0838 ± 0.029 | 0.00455 ± 0.0034 |
| UCCUGCUACAGCAUGCAUAGUAUUUACUUA | 0.486 ± 0.056 | 0.0113 ± 0.0027 |
| UCCUGGAACAGCUUGCAUAGUAUUUUGAAA | 0.266 ± 0.041 | 0.00717 ± 0.0038 |
| UCCUGGAACAGCUUGCUAUGUAUUUAGUUA | 0.0729 ± 0.011 | 0.00814 ± 0.0024 |
| UCCUGGAUGUGCUUGCAGAGUAUUUAGUUA | 0.0473 ± 0.0088 | 0.0137 ± 0.0038 |
| UGGACGUAGAGCUUGCAUAGUAUUUAGUUA | 1.29 ± 0.083 | 0.043 ± 0.0093 |
| UCCUGGAUCAGCUUGGAUACUAUUUAGUUA | 0.212 ± 0.03 | 0.033 ± 0.0082 |
| UCCUGGUACAGCAAGCAUAGUAUUUAGUAA | 0.316 ± 0.039 | 0.0033 ± 0.0024 |
| AGCACCUACAGCUUGCAUAGUAUUUUGUUA | 1.3 ± 0.2 | 0.624 ± 0.22 |
| UCCACGUACAGCAUGCAUAGUAUUUAGUUA | 1.26 ± 0.047 | 0.0275 ± 0.0042 |
| UCCUGCUACACCUUGCAUAGUAUUUUGUUA | 0.374 ± 0.079 | 0.0162 ± 0.0029 |
| AGGAGGAACAGCUUGCAUAGUAUUUAGAAA | 0.385 ± 0.061 | 0.00865 ± 0.0029 |
| UCCUGGAUCAGCUUGGAUAGUAUAUAGUUA | 0.216 ± 0.026 | 0.0214 ± 0.0062 |
| UCCUGGUACAGCUUGCAUAGUAUUUACUUA | 0.158 ± 0.028 | 0.0162 ± 0.0034 |
| UCCUGGUACAGCUUGCAAGUAUUUAGUUA | 0.181 ± 0.021 | 0.0108 ± 0.0039 |
